# According to PubChem BioAssay AID2675 (National Center for Advancing Translational Sciences (NCATS), 2010):
# The campaign covered roughly 280,000 compounds. About 100 (0.036%) were called active. This list was built around the results that the source calls inconclusive (neither active nor inactive); the mix of calls is not that of the screen. Calls come from the whole dose curve; as a rule, active = well fitted inhibition curve with a large enough effect in the signal ratio, with a control signal flat (not every such curve was filed as active); inconclusive = small, poorly fitted or top-dose-only effect, or effect the other way, or a change in a side signal; inactive = no such curve, though single readings can be large or run the other way; the % refers to the signal ratio. A potency beside an inconclusive call is a rough fit, not a confirmed value. A note “side channel” means that the fit belongs to a control or component signal, not to the main read-out.
# Target: Muscleblind-like protein 1 (Homo sapiens) (UniProt Q9NR56)
# Sequence of UniProt Q9NR56 (Q9NR56 whole entry, looked up): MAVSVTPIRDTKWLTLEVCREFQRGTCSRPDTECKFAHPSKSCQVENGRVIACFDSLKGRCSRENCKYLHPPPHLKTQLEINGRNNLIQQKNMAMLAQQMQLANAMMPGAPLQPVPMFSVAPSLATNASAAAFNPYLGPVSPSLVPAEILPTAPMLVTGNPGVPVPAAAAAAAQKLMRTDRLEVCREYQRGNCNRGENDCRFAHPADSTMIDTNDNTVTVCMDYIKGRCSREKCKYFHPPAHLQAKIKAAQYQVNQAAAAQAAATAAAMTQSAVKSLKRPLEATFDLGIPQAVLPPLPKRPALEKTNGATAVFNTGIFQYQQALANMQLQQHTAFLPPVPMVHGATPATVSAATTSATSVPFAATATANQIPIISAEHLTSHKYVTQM
# Experiment: qHTS Assay for Inhibitors of MBNL1-poly(CUG) RNA binding
# Settings: TR-FRET MBNL1-His/biotin-(CUG)12 binding, 665/545 ratio; activity change, negative = inhibition: at 57.5 µM (top of the series)
# In short: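 Inhibition of protein-RNA binding appears as loss of TR-FRET between terbium anti-His antibody on MBNL1-His and streptavidin-XL665 on biotin-(CUG)12. Activity is normalized to buffer-only and uninhibited-complex controls.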
# % is set by controls: 0 for no effect and ±100 for the full control effect; potency is the fitted concentration of half-maximal effect; tags give direction and shape of the fitted curve or compound fluorescence and quenching.
SMILES,Potency,"activity change, negative = inhibition"
COCc1nnc(NC(=O)CSc2ccccc2)s1,inactive,–
CCOC(=O)N1CCC(=NNc2ccc(S(=O)(=O)N3CCOCC3)cc2[N+](=O)[O-])CC1,"inconclusive: 3.16 µM [quencher, side channel, full curve, poor fit]",–
O=C(Nc1ccccc1)c1cc2ccccc2c(=O)s1,"inconclusive: 10 µM [quencher, side channel, partial curve]",–
CN(C)c1ccc(C(C(=O)NCC2CCCO2)N(Cc2ccccc2)C(=O)c2snc(C(N)=O)c2N)cc1 (centres undefined),"inconclusive: 31.6 µM [quencher, side channel, single point]",–
CCOc1ccc(N(C(=O)c2snc(C(N)=O)c2N)C(C(=O)NCC2CCCO2)c2ccco2)cc1 (centres undefined),"inconclusive: 25.1 µM [quencher, side channel, partial curve]",–
CCOc1cc(/C=C/c2ccc3cccc([N+](=O)[O-])c3n2)ccc1O,inactive,–
COc1cccc(NC(=O)C2CC(=O)N/C(=N/NC(=O)c3ccc(C)cc3)S2)c1 (centres undefined),inactive,–
COc1ccccc1OCCN1C(=O)S/C(=C\c2ccco2)C1=O,"inconclusive: 14.1 µM [quencher, side channel, partial curve]",–
O=C(N/N=C/C(Br)=C\c1ccccc1)c1cccs1,inactive,–
C/C(Cn1nnc([N+](=O)[O-])n1)=N\NC(=O)c1ccccc1,"inconclusive: 15.8 µM [quencher, side channel, partial curve]",–
COc1cc2c(cc1OC)[C@@H]1O[C@](CCCCN3C(=O)c4ccccc4C3=O)(C2)Oc2cc(C)n(-c3ccccc3)c(=O)c21,–,inactive: 9.2% [at 11.5 µM]
CCc1ccc(C(=O)c2cc3ccc(O)cc3oc2=O)cc1,"inconclusive: 20 µM [quencher, side channel, partial curve]",–
COc1cccc(Nc2nc3ccc(OC)cc3s2)c1,inactive,–
O=C(CCS(=O)(=O)Cc1ccc(Cl)cc1)NCCCN1CCN(c2ccccc2F)CC1,inactive,–
O=[n+]1cc(-c2cc3ccccc3o2)n([O-])c2c1CCCC2,"inconclusive: 4.47 µM [quencher, side channel, partial curve]",–
COc1cnc(-c2cccc(C(F)(F)F)c2)[nH]c1=O,inactive,–
C/C(=N\Nc1nc(C)cc(C)n1)c1ccc(N2CCOCC2)cc1,inactive,–
Cc1cc(/C=C2/C(=O)N(C)C(=S)N2C)c(C)n1C1CC1,"inconclusive: 28.2 µM [quencher, side channel, partial curve]",–
COC(=O)CC1C(=O)NCCN1C(=O)c1ccc([N+](=O)[O-])cc1 (centres undefined),"inconclusive: 5.62 µM [quencher, side channel, full curve]",–
N#CC1=C(N)SC(N)=C(C#N)C1c1ccc([N+](=O)[O-])cc1,"inconclusive: 14.1 µM [quencher, side channel, partial curve, poor fit]",–
O=c1[nH]cnc2c([N+](=O)[O-])cccc12,"inconclusive: 15.8 µM [quencher, side channel, partial curve]",–
O=C(N/N=C/C=C\c1ccccc1[N+](=O)[O-])c1cccnc1,"inconclusive: 14.1 µM [quencher, side channel, partial curve]",–

SMILES,Potency,"activity change, negative = inhibition"
COCC(=O)N(C)c1nnc(-c2ccc([N+](=O)[O-])cc2)s1,"inconclusive: 1.26 µM [quencher, side channel, full curve]",–
CCOc1ccc(C(=O)c2ccc([N+](=O)[O-])cc2Cl)cc1,"inconclusive: 25.1 µM [quencher, side channel, partial curve]",–
O/N=C/c1cn(-c2ccccc2)nc1-c1cccnc1,inactive,–
Cc1c(NC(=O)Cn2nc(C(=O)O)c3ccccc3c2=O)c(=O)n(-c2ccccc2)n1C,inactive,–
COc1ccc(C2c3c(oc4ccccc4c3=O)C(=O)N2c2ccccn2)cc1OC (centres undefined),"inconclusive: 39.8 µM [quencher, single point]",–
COc1ccc(Nc2nc(-c3ccc4c(c3)NC(=O)CO4)cs2)cc1,inactive,–
COc1ccc(/C(C#N)=C/c2ccccn2)cc1,"inconclusive: 14.1 µM [quencher, side channel, partial curve]",–
Cc1cc(=O)oc(C)c1C(=O)NCCCN1CCN(c2ccc(F)cc2)CC1,"inconclusive: 100 µM [inhibitor, single point]",–
CN(C)c1ccc(/C=N/NC(=O)CNC(=O)/C=C/c2ccco2)cc1,"inconclusive: 25.1 µM [quencher, side channel, partial curve]",–
CCNc1ccc(Br)cc(C(=O)/C=C/c2ccc(Cl)cc2Cl)c1=O,inactive,–
CCN(C(=O)CN1C(=O)S/C(=C\c2cccc(Cl)c2)C1=O)C1CCS(=O)(=O)C1 (centres undefined),"inconclusive: 20 µM [quencher, side channel, partial curve]",–
COCCNc1ccc(N2C(=O)CCCC2=O)cc1[N+](=O)[O-],"inconclusive: 4.47 µM [quencher, side channel, full curve]",–
O=c1c2cc([N+](=O)[O-])cc([N+](=O)[O-])c2[nH]n1-c1ccccc1,"inconclusive: 20 µM [quencher, side channel, partial curve]",–
O=C1C=C(Nc2ccccc2C(=O)O)c2ccccc2C1=O,"inconclusive: 15.8 µM [quencher, partial curve]",–
O=C(CCN1C(=O)S/C(=C/c2ccccc2)C1=O)Nc1ccc(O)c(C(=O)O)c1,"inconclusive: 14.1 µM [quencher, side channel, partial curve]",–
CC(Sc1nnc(COc2ccc([N+](=O)[O-])cc2)n1C)C(=O)O (centres undefined),"inconclusive: 15.8 µM [quencher, side channel, partial curve]",–
O=C(O)c1cccc(N2C(=O)c3cc([N+](=O)[O-])cc4cc([N+](=O)[O-])cc(c34)C2=O)c1,"inconclusive: 5.01 µM [quencher, side channel, partial curve]",–
O=C1c2cccc3cccc(c23)C(=O)N1c1ccccc1Cl,"inconclusive: 6.31 µM [quencher, side channel, partial curve]",–
COCC(=O)Nc1nc2n(n1)C(c1ccc(OC)cc1)CC(c1ccc(OC)cc1)N2 (centres undefined),inactive,–
COc1ccc(C(=O)c2cc([N+](=O)[O-])ccc2N2CCN(C)CC2)cc1,"inconclusive: 12.6 µM [quencher, side channel, partial curve]",–
O=C(N/N=C/C(Cl)=C/c1ccccc1)c1ccccc1F,"inconclusive: 8.91 µM [quencher, side channel, partial curve]",–
CN(C)CCOCCOc1ccccc1-c1ccccc1,inactive,–

SMILES,Potency,"activity change, negative = inhibition"
CCOc1cc([C@@H]2C[C@H]3CN(c4ccccc4)C(=O)[C@]34CCCN24)ccc1OC,inactive,–
COc1ccccc1N(CC(=O)NC1CCCCC1)C(=O)c1csnn1,inactive,–
COc1ccccc1/C=C1\SC(=O)N(CC(=O)NCCCn2ccnc2)C1=O,"inconclusive: 28.2 µM [quencher, partial curve]",–
Cc1ccc(NC2=C([N+](=O)[O-])CS(=O)(=O)C2)cc1,inactive,–
O=c1c2ccccc2c(C=Nc2ccc(O)cc2)c(O)n1-c1nccs1,"inconclusive: 17.8 µM [quencher, side channel, partial curve]",–
COc1ccc(/C=C2\CCn3c2nc2cc(C(=O)O)ccc2c3=O)cc1O,"inconclusive: 5.62 µM [quencher, side channel, partial curve]",–
COC(CSc1nc(N)c2c3c(sc2n1)CN(C)CC3)OC,"inconclusive: 15.8 µM [quencher, side channel, partial curve]",–
CC(=O)Nc1ccccc1Nc1cc(C#N)c(C#N)cc1[N+](=O)[O-],"inconclusive: 14.1 µM [quencher, partial curve]",–
O=C1C(C=Nc2ccccc2)=C(O)c2ccccc21,"inconclusive: 10 µM [quencher, side channel, partial curve]",–
COc1ccccc1/C=C/C1=NC(=C\N(C)C)/C(=O)O1,"inconclusive: 17.8 µM [quencher, side channel, single point]",–
Cc1cc(NC(=O)CSc2ncccn2)no1,inactive,–
O=C(Nc1cccnc1)Nc1ccc(F)c(Cl)c1,"inconclusive: 63.1 µM [inhibitor, partial curve]",–
S=c1[nH]nc(Cc2sc(-c3ccccc3)nc2-c2ccccc2)o1,inactive,–
Nc1c(NC(=O)CC[n+]2ccccc2)cccc1[N+](=O)[O-],"inconclusive: 20 µM [quencher, side channel, partial curve]",–
CCc1nnc2n1N=C(c1ccc([N+](=O)[O-])cc1)CS2,"inconclusive: 2.51 µM [quencher, side channel, full curve]",–
O=C1CCCN1CCC(=O)N1CCCC(Nc2ccc(F)cc2)C1 (centres undefined),inactive,–
O=[N+]([O-])c1cc(S(=O)(=O)N2CCOCC2)ccc1N1CCCC1,"inconclusive: 11.2 µM [quencher, side channel, partial curve]",–
O=C(c1cc(C(=O)N2CCOCC2)c2nc3ccccc3n2c1)c1ccccc1O,"inconclusive: 5.62 µM [quencher, side channel, partial curve]",–
CCOc1ccc2[nH]c(=O)c(C(c3nnnn3CC3CCCO3)N3CCc4ccccc4C3)cc2c1 (centres undefined),"inconclusive: 35.5 µM [quencher, side channel, single point]",–
COc1ccc(CCC(=O)O)c(O)c1,inactive,–
